# Results: the supplement of paper PMC8728848
# The list shows a part of the results.
# Tests used:
# Assay in all cases: glycan array binding signal (z-score within array); higher = stronger binding
# Conditions in all cases: glycan notation: IUPAC condensed, linker removed
# [1] = target: Gal(b1-4)GlcNAc(b1-2)[Gal(b1-4)GlcNAc(b1-4)]Man(a1-3)[Fuc(a1-3)[Gal(b1-4)]GlcNAc(b1-2)Man(a1-6)]Man(b1-4)GlcNAc(b1-4)GlcNAc
# In short: (§1)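 Glycan array data came from 3228 arrays in the Consortium for Functional Glycomics database, and only arrays with an available protein sequence were kept. Glycan names were put into IUPAC-condensed notation, and columns mapping to the same glycan were averaged. The binding signal is a within-array Z-score, averaged across arrays of one protein sequence run at different concentrations or buffers and across linkers. A negative Z-score can be read as non-binding.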
# [2] = target: Gal(b1-4)GlcNAc(b1-2)[Gal(b1-4)GlcNAc(b1-4)]Man(a1-3)[Gal(b1-4)GlcNAc(b1-2)Man(a1-6)]Man(b1-4)GlcNAc(b1-4)GlcNAc
# In short: as §1
# [3] = target: Gal(b1-4)GlcNAc(b1-2)[Gal(b1-4)GlcNAc(b1-4)]Man(a1-3)[Gal(b1-4)GlcNAc(b1-2)[Gal(b1-4)GlcNAc(b1-6)]Man(a1-6)]Man(b1-4)GlcNAc(b1-4)GlcNAc
# In short: as §1
# [4] = target: Gal(b1-4)GlcNAc(b1-3)Fuc
# In short: as §1
# [5] = target: Gal(b1-4)GlcNAc(b1-3)Gal(b1-4)Glc
# In short: as §1
# [6] = target: Gal(b1-4)GlcNAc(b1-3)Gal(b1-4)GlcNAc(b1-3)Gal(b1-4)Glc
# In short: as §1
# [7] = target: Gal(b1-4)GlcNAc(b1-3)[Fuc(a1-3)[Gal(b1-4)]GlcNAc(b1-6)]Gal(b1-4)Glc
# In short: as §1
# [8] = target: Gal(b1-4)GlcNAc(b1-3)[Gal(b1-4)GlcNAc(b1-6)]Gal(b1-4)Glc
# In short: as §1
# [9] = target: Gal(b1-4)GlcNAc(b1-3)[Gal(b1-4)GlcNAc(b1-6)]Gal(b1-4)GlcNAc(b1-3)Gal(b1-4)Glc
# In short: as §1
# [10] = target: Gal(b1-4)GlcNAc(b1-3)[Gal(b1-4)GlcNAc(b1-6)]Gal(b1-4)GlcNAc(b1-3)[Gal(b1-4)GlcNAc(b1-6)]Gal(b1-4)GlcNAc(b1-3)Gal(b1-4)Glc
# In short: as §1
# [11] = target: Gal(b1-4)GlcNAc(b1-3)[Gal(b1-4)GlcNAc(b1-6)]Gal(b1-4)GlcNAc(b1-3)[Gal(b1-4)GlcNAc(b1-6)]Gal(b1-4)GlcNAc(b1-3)[Gal(b1-4)GlcNAc(b1-6)]Gal(b1-4)GlcNAc(b1-3)Gal(b1-4)Glc
# In short: as §1
# [12] = target: Gal(b1-4)GlcNAc(b1-3)[Gal(b1-4)GlcNAc(b1-6)]Gal(b1-4)GlcNAc(b1-3)[Gal(b1-4)GlcNAc(b1-6)]Gal(b1-4)GlcNAc(b1-3)[Gal(b1-4)GlcNAc(b1-6)]Gal(b1-4)GlcNAc(b1-3)[Gal(b1-4)GlcNAc(b1-6)]Gal(b1-4)GlcNAc(b1-3)Gal(b1-4)Glc
# In short: as §1
# [13] = target: Gal(b1-6)GalNAc
# In short: as §1
# [14] = target: Gal3S(b1-3)GalNAc(b1-4)Gal3S(b1-4)Glc
# In short: as §1
# [15] = target: Gal3S(b1-3)[Fuc(a1-4)]GlcNAc
# In short: as §1
# [16] = target: Gal3S(b1-3)[Fuc(a1-4)]GlcNAc(b1-3)Gal(b1-4)Glc
# In short: as §1
# [17] = target: Gal3S(b1-4)Glc
# In short: as §1
# [18] = target: Gal3S(b1-4)GlcNAc
# In short: as §1
# [19] = target: Gal3S(b1-4)GlcNAc(b1-3)Gal
# In short: as §1
# [20] = target: Gal6S(b1-3)[Fuc(a1-4)]GlcNAc(b1-3)Gal(b1-4)Glc
# In short: as §1
# [21] = target: GalNAc(a1-3)Gal(b1-4)Glc
# In short: as §1
# [22] = target: GalNAc(a1-3)GalNAc
# In short: as §1
# [23] = target: GalNAc(b1-4)Gal(b1-4)Glc
# In short: as §1
# [24] = target: GalNAc(b1-4)Gal3S(b1-4)Glc
# In short: as §1
# [25] = target: GalNAc(b1-4)[Neu5Ac(a2-6)]Gal(b1-4)Glc
# In short: as §1
# [26] = target: GalNAc3S(b1-4)Gal3S(b1-4)Glc
# In short: as §1
# [27] = target: Glc(a1-2)Glc
# In short: as §1
# [28] = target: Glc(a1-2)Glc(a1-3)Glc(a1-3)Man(a1-2)Man(a1-2)Man(a1-3)[Man(a1-3)[Man(a1-6)]Man(a1-6)]Man(b1-4)GlcNAc
# In short: as §1
# [29] = target: Glc(a1-3)Glc
# In short: as §1
# [30] = target: Glc(a1-3)Glc(a1-3)Man(a1-2)Man(a1-2)Man(a1-3)[Man(a1-2)Man(a1-3)[Man(a1-2)Man(a1-6)]Man(a1-6)]Man(b1-4)GlcNAc(b1-4)GlcNAc
# In short: as §1
# [31] = target: Glc(a1-3)Glc(a1-3)Man(a1-2)Man(a1-2)Man(a1-3)[Man(a1-3)[Man(a1-6)]Man(a1-6)]Man(b1-4)GlcNAc
# In short: as §1
# [32] = target: Glc(a1-3)Man(a1-2)Man(a1-2)Man(a1-3)[Man(a1-2)Man(a1-3)[Man(a1-2)Man(a1-6)]Man(a1-6)]Man(b1-4)GlcNAc(b1-4)GlcNAc
# In short: as §1
# [33] = target: Glc(a1-4)Glc
# In short: as §1
# [34] = target: Glc(a1-4)Glc(a1-4)Glc
# In short: as §1
# [35] = target: Glc(a1-4)Glc(a1-4)Glc(a1-4)Glc
# In short: as §1
# [36] = target: Glc(a1-4)Glc(a1-4)Glc(a1-4)Glc(a1-4)Glc
# In short: as §1
# [37] = target: Glc(a1-4)Glc(a1-4)Glc(a1-4)Glc(a1-4)Glc(a1-4)Glc
# In short: as §1
binder,measurement,setting,value
"HysACBM (Streptococcus pneumoniae), Q54873 (protein) KNLVENGDFGQTEDGSSPWTGSKAQGWSAWVDQKNSADASTRVIEAKDGAITISSHEKLRAALHRMVPIEAKKKYKLRFKIKTDNKIGIAKVRIIEESGKDKRLWNSATTSGTKDWQTIEADYSPTLDVDKIKLELFYETGTGTVSFKDIELVEVADQLS",glycan array binding signal (z-score),[1],0.063
same,glycan array binding signal (z-score),[2],-0.091
same,glycan array binding signal (z-score),[3],0.105
same,glycan array binding signal (z-score),[4],0.281
same,glycan array binding signal (z-score),[5],-0.091
same,glycan array binding signal (z-score),[6],-0.091
same,glycan array binding signal (z-score),[7],-0.091
same,glycan array binding signal (z-score),[8],0.137
same,glycan array binding signal (z-score),[9],-0.091
same,glycan array binding signal (z-score),[10],-0.091
same,glycan array binding signal (z-score),[11],0.258
same,glycan array binding signal (z-score),[12],-0.091
same,glycan array binding signal (z-score),[13],-0.064
same,glycan array binding signal (z-score),[14],-0.091
same,glycan array binding signal (z-score),[15],-0.076
same,glycan array binding signal (z-score),[16],0.18
same,glycan array binding signal (z-score),[17],-0.039
same,glycan array binding signal (z-score),[18],-0.091
same,glycan array binding signal (z-score),[19],0.169
same,glycan array binding signal (z-score),[20],-0.084
same,glycan array binding signal (z-score),[21],0.154
same,glycan array binding signal (z-score),[22],-0.091
same,glycan array binding signal (z-score),[23],0.321
same,glycan array binding signal (z-score),[24],-0.076
same,glycan array binding signal (z-score),[25],-0.091
same,glycan array binding signal (z-score),[26],-0.091
same,glycan array binding signal (z-score),[27],-0.091
same,glycan array binding signal (z-score),[28],-0.091
same,glycan array binding signal (z-score),[29],-0.091
same,glycan array binding signal (z-score),[30],-0.091
same,glycan array binding signal (z-score),[31],-0.091
same,glycan array binding signal (z-score),[32],-0.091
same,glycan array binding signal (z-score),[33],-0.091
same,glycan array binding signal (z-score),[34],-0.091
same,glycan array binding signal (z-score),[35],-0.091
same,glycan array binding signal (z-score),[36],-0.091
same,glycan array binding signal (z-score),[37],0.112
